The target in experiment [1] is T1, B7-H3 on human tumor cell lines (HT29, NCI-N87, HCC1806, HCC827, A375) (human, UniProt Q5ZPR3 29-534).
T1 construct: whole, on cells
T1 sequence (looked up): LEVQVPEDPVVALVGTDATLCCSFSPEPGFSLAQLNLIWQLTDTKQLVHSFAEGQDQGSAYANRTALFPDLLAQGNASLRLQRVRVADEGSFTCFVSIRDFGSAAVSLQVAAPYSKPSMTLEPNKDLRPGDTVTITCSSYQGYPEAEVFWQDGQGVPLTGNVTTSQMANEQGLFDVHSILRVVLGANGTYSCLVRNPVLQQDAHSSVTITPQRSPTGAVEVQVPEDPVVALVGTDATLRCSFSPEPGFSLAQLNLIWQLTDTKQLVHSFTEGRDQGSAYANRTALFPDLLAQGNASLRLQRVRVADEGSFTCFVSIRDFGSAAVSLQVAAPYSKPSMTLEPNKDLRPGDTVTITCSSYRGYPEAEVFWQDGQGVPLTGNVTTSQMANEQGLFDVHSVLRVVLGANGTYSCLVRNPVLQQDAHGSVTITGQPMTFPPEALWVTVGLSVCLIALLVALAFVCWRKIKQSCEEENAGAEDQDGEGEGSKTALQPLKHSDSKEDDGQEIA
Briefly: flow cytometry on HT29 cells. Background: A flow cytometer gives signals particle by particle.

Experiment [2] addresses T2, human B7-H3-4Ig on CHO-S cells (human, UniProt Q5ZPR3 29-534).
T2 construct: whole, on cells; also called CHO-S-human B7-H3-4Ig; CHOS-human B7-H3-4Ig
T2 sequence (looked up): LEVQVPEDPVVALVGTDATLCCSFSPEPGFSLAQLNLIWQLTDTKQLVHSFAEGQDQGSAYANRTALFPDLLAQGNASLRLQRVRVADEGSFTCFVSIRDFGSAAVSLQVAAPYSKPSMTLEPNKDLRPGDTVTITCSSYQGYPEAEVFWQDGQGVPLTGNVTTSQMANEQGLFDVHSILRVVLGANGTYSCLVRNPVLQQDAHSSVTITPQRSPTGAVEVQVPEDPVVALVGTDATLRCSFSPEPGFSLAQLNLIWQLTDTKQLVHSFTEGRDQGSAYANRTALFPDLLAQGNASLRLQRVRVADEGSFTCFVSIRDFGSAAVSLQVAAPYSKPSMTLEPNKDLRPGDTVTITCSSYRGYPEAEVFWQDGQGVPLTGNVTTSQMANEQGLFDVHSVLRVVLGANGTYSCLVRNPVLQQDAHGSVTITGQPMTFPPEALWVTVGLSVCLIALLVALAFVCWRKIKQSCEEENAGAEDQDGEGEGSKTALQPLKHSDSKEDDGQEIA
Briefly: flow cytometry on CHOS-human B7-H3-4Ig cells.

The target of experiment [3] is T1, B7-H3 on human tumor cell lines (HT29, …). Briefly: flow cytometry on HCC827 cells (experiment 2).
Experiment [4] addresses T3, monkey B7-H3 on CHO-S cells (monkey).
T3 construct: whole, on cells; also called CHO-S-monkey B7-H3; CHOS-monkey B7-H3
The experiment is described as follows: flow cytometry on CHOS-monkey B7-H3 cells.

Another experiment has as its target T4, rat B7-H3-his protein (rat, UniProt Q7TPB4 29-248, limits assumed).
T4 construct: not shown: His tag
T4 sequence (looked up): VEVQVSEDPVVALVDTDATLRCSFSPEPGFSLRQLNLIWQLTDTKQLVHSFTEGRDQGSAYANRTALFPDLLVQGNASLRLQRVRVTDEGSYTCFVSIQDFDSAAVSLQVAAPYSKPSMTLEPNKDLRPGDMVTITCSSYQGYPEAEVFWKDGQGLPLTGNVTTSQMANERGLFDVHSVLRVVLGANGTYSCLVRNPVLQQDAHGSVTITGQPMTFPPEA
The experiment is described as follows: BLI (ForteBio), antibody captured on Protein A sensor. Background: BLI is a label-free optical method that tracks binding on a fibre tip over time.

The target of experiment [5] is T1, B7-H3 on human tumor cell lines (HT29, …). The experiment is described as follows: flow cytometry on HCC827 cells.
In another experiment the target is T5, human C1q (human, UniProt P02745; P02746; P02747, biotinylated (sites not given)).
T5 construct: Biotinylated protein captured on SA sensor
Briefly: BLI (ForteBio), biotinylated C1q on SA sensor.

Experiment [6] addresses T6, human Fc receptor protein CD32b (human, UniProt P31994 46-217, limits assumed, biotinylated (sites not given)).
T6 construct: Biotinylated protein captured on SA sensor
T6 sequence (looked up): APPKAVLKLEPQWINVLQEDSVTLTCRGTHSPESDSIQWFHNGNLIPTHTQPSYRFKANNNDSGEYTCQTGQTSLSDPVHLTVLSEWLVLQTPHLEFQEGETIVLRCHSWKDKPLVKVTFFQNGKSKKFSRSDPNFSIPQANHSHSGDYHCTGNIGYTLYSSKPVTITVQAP
The experiment is described as follows: BLI (ForteBio), biotinylated receptor on SA sensor.

Experiment [7] deals with T7, human Fc receptor protein CD16a (human, UniProt P08637 partial chain, biotinylated (sites not given)).
T7 construct: Biotinylated protein captured on SA sensor
Briefly: BLI (ForteBio), biotinylated receptor on SA sensor.

The target in experiment [8] is T8, human Fc receptor protein CD32a (human, UniProt P12318 36-218, limits assumed, biotinylated (sites not given)).
T8 construct: Biotinylated protein captured on SA sensor
T8 sequence (looked up): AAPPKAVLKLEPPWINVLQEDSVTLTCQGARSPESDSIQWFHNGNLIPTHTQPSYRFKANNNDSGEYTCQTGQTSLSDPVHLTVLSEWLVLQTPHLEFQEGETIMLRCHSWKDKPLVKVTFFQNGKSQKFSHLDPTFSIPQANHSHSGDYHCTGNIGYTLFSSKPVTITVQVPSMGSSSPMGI
The experiment is described as follows: BLI (ForteBio), biotinylated receptor on SA sensor.

Experiment [9] has as its target T9, human B7-H3-2Ig-his protein (human, UniProt Q5ZPR3-2 29-245, limits assumed).
T9 construct: the 2Ig form is its isoform 2; not shown: His tag
T9 sequence (looked up): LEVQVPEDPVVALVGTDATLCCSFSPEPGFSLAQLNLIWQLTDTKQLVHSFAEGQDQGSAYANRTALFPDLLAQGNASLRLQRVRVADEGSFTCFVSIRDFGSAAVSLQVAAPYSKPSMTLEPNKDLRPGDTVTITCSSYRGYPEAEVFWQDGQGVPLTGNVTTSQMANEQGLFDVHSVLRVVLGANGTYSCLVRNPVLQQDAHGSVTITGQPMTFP
Briefly: BLI (ForteBio), antibody on Protein A sensor, antigen 200-3.125 nM, 1:1 global fit.

Experiment [10] concerns the target T10, human B7-H3-4Ig-his protein (human, UniProt Q5ZPR3 29-461, limits assumed).
T10 construct: not shown: His tag
T10 sequence (looked up): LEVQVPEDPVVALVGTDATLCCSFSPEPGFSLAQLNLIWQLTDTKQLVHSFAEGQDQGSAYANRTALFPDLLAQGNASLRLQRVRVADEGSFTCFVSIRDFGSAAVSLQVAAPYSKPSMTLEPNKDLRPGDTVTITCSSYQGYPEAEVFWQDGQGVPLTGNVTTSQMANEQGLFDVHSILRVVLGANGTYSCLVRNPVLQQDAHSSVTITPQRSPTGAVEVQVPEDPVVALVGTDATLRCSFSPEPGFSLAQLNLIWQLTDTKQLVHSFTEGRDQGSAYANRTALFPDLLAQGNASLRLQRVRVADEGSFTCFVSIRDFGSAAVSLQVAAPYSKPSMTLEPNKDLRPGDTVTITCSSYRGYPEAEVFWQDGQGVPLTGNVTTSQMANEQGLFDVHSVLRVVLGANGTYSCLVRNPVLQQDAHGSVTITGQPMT
The description is as above.

For a further experiment, the target named is monkey B7-H3-his protein (monkey). The experiment is described as above.

Chain of human C1q (P02745 23-245 limits assumed, chain 1 of 3): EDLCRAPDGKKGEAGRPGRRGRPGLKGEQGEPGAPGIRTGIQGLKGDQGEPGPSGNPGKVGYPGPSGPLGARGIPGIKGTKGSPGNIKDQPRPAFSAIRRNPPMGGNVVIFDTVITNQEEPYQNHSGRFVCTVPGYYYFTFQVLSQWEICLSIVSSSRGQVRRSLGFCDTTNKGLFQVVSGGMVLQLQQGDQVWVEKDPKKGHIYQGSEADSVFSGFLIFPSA
Chain of human C1q (P02746 28-253 limits assumed, chain 2 of 3, further chain): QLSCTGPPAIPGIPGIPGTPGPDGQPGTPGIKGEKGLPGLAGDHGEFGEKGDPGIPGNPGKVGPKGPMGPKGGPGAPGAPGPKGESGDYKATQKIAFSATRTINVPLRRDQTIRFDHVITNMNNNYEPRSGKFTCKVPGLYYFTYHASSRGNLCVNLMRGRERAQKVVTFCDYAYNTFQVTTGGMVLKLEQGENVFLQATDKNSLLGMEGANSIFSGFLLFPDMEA
Chain of human C1q (P02747 29-245 limits assumed, chain 3 of 3, further chain): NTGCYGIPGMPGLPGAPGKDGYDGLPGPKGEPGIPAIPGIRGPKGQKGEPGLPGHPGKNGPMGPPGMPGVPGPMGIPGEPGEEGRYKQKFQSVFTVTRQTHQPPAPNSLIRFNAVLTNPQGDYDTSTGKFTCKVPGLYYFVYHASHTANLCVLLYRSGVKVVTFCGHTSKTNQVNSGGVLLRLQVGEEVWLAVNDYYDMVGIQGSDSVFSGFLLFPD
T7 sequence (P08637 17-208 limits assumed): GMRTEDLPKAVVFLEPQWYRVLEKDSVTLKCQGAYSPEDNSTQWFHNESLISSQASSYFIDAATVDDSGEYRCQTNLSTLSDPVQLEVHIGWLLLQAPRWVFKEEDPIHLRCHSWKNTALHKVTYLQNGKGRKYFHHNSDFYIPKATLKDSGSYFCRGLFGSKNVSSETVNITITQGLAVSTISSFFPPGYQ

B1: fully human anti-B7-H3 antibody 2#8890 (antibody, human IgG1, kappa)
heavy: QVQLQESGPGLVQPSGTLSLTCAVSGGSDSSTNWWTWVRQSPGQGLEWIGEISPIGFTSYSPSLRSRVTISVDKSKTQFSLKLSSVTAADTAVYYCARDRLYFAFWGQGTLVTVSSASTKGPSVFPLAPSSKSTSGGTAALGCLVKDYFPEPVTVSWNSGALTSGVHTFPAVLQSSGLYSLSSVVTVPSSSLGTQTYICNVNHKPSNTKVDKKV[human IgG1 Fc with L234A L235A G237A (EU numbers) left out here]
light: EIVMTQSPATLSVSPGERATLSCRASQSVSSNLAWYQQKPGQAPRLLIYGASTRATGIPDRFSGSGSGTEFTLTISSLESEDFAVYYCQQYNNWPITFGQGTRLEIKRTVAAPSVFIFPPSDEQLKSGTASVVCLLNNFYPREAKVQWKVDNALQSGNSQESVTEQDSKDSTYSLSSTLTLSKADYEKHKVYACEVTHQGLSSPVTKSFNRGEC
notes: expressed in CHO-S, Protein A purified
With B1, the EC50 in experiment [1] is 0.00634 µg/mL; in experiment [2] it was 0.115 µg/mL; in experiment [3], 0.029 µg/mL; in experiment [4] it was 0.0649 µg/mL; in [5], 0.0123 µg/mL. The binding result with rat B7-H3-his protein is “no binding (tested: 200 nM (highest antigen concentration))”; in the experiment with human C1q, “no binding (tested: 5000 nM (highest concentration))”; in experiment [6] it was “no binding (tested: 5000 nM (highest concentration))”; in experiment [7], “no binding (tested: 5000 nM (highest concentration))”; in [8], “no binding (tested: 5000 nM (highest concentration))”. Moreover, the Kd in [9] came to 18.3 nM; in experiment [10], 0.783 nM; in the experiment with monkey B7-H3-his protein it was 1.24 nM.

One may read the EC50 as the concentration needed to bring the measured effect to its halfway point. The term Kd denotes the equilibrium constant for the complex coming apart.

Source of the values: patent EP4603109A1 (Sichuan Kelun-Biotech Biopharmaceutical Co., Ltd., dated 2024).
